The supplement of paper PMC4967469
A lower IC50 marks a more sensitive line; a fit beyond the top or the lowest dose is shown as a bound at that dose. The AUC spans the tested range (256-fold, ending at the top dose) of the same fit; it is 1 without any effect and falls as sensitivity rises. Where the top dose is marked as inferred, it was derived from the fitted curves, not read from the paper. For some assays here: Where an entry number is given, a second screen of the drug exists; the two often differ.

What was measured:
Experiment in all cases: Viability of human cancer cell lines after 72 h of drug (GDSC screen)
AZD6482 = compound: Cc1cc([C@@H](C)Nc2ccccc2C(=O)O)c2nc(N3CCOCC3)cc(=O)n2c1 [AZD6482]
Description: (§1)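 Human cancer cell lines in 384-well plates, medium with 10% serum, drug for 72 h over a 256-fold dose range (nine 2-fold or five 4-fold steps up to the top dose). Adherent lines were fixed and stained with the nucleic acid dye Syto60, suspension lines read with resazurin; signal relative to control wells, capped at 0 and 100%. One two-parameter sigmoid per drug and line, fitted in a mixed model over all curves with the slope shared within a line.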

BMN-673 = compound: Cn1ncnc1[C@H]1c2n[nH]c(=O)c3cc(F)cc(c23)N[C@@H]1c1ccc(F)cc1 [BMN-673]; conditions: top dose 10 µM; top dose inferred
Description: as §1

MLN4924 = compound: NS(=O)(=O)OC[C@@H]1C[C@@H](n2ccc3c(N[C@H]4CCc5ccccc54)ncnc32)C[C@@H]1O [MLN4924]; conditions: top dose 1 µM; top dose inferred
Description: as §1

[1] = top dose 5 µM, screen: GDSC drug entry 1066, top dose inferred
[2] = top dose 5.12 µM, screen: GDSC drug entry 156

“ML-2 (acute myeloid leukaemia, suspension)” was tested, and the AUC (AZD6482; [1]) was 0.966, the IC50 (AZD6482; [1]) was > 5000 nM and the AUC (AZD6482; [2]) was 0.847. The IC50 (AZD6482; [2]) was 3160 nM, the AUC (BMN-673) was 0.471 and the IC50 (BMN-673) was 526 nM. The AUC (MLN4924) was 0.618 and the IC50 (MLN4924) was 127 nM.

“MOLM-16 (acute myeloid leukaemia, suspension)” gave an AUC (AZD6482; [1]) of 0.547, an IC50 (AZD6482; [1]) of 413 nM and an AUC (BMN-673) of 0.921. For the same cell line, the IC50 (BMN-673) was > 10000 nM, the AUC (MLN4924) was 0.946 and the IC50 (MLN4924) was > 1000 nM.

For MOLP-8 (myeloma, suspension), the AUC (AZD6482; [1]) was 0.891, the IC50 (AZD6482; [1]) was > 5000 nM and the AUC (AZD6482; [2]) was 0.827. For the same cell line, the IC50 (AZD6482; [2]) was 2970 nM, the AUC (BMN-673) was 0.669 and the IC50 (BMN-673) was 1810 nM. For the same cell line, the AUC (MLN4924) was 0.728 and the IC50 (MLN4924) was 270 nM.

In the case of “MOLT-4 (lymphoblastic leukaemia, suspension)”, the AUC (AZD6482; [1]) is reported as 0.921, the IC50 (AZD6482; [1]) is reported as > 5000 nM and the AUC (AZD6482; [2]) is reported as 0.958. For the same cell line, the IC50 (AZD6482; [2]) was > 5120 nM, the AUC (BMN-673) was 0.563 and the IC50 (BMN-673) was 896 nM. The AUC (MLN4924) was 0.855 and the IC50 (MLN4924) was 575 nM.

In the case of “MOLT-13 (T-cell lymphoblastic leukaemia, suspension)”, the AUC (AZD6482; [1]) is reported as 0.986, the IC50 (AZD6482; [1]) is reported as > 5000 nM and the AUC (BMN-673) is reported as 0.718. The IC50 (BMN-673) was 2370 nM, the AUC (MLN4924) was 0.733 and the IC50 (MLN4924) was 261 nM.

Work on “MONO-MAC-6 (acute myeloid leukaemia, suspension)” yielded an AUC (AZD6482; [1]) of 0.758, an IC50 (AZD6482; [1]) of 1830 nM and an AUC (AZD6482; [2]) of 0.915. For the same cell line, the IC50 (AZD6482; [2]) was > 5120 nM, the AUC (BMN-673) was 0.717 and the IC50 (BMN-673) was 2680 nM. The AUC (MLN4924) was 0.611 and the IC50 (MLN4924) was 128 nM.

In the case of MPP-89 (mesothelioma, adherent), the AUC (AZD6482; [1]) is reported as 0.884, the IC50 (AZD6482; [1]) is reported as > 5000 nM and the AUC (AZD6482; [2]) is reported as 0.95. For the same cell line, the IC50 (AZD6482; [2]) was > 5120 nM, the AUC (BMN-673) was 0.936 and the IC50 (BMN-673) was > 10000 nM. The AUC (MLN4924) was 0.862 and the IC50 (MLN4924) was > 1000 nM.

In the case of MRK-nu-1 (breast, suspension), the AUC (AZD6482; [1]) is reported as 0.985, the IC50 (AZD6482; [1]) is reported as > 5000 nM and the AUC (AZD6482; [2]) is reported as 0.976. For the same cell line, the IC50 (AZD6482; [2]) was > 5120 nM, the AUC (BMN-673) was 0.989 and the IC50 (BMN-673) was > 10000 nM. The AUC (MLN4924) was 0.989 and the IC50 (MLN4924) was > 1000 nM.

With MS751 (cervix, adherent) the AUC (AZD6482; [1]) was 0.977, the IC50 (AZD6482; [1]) was > 5000 nM and the AUC (AZD6482; [2]) was 0.987. The IC50 (AZD6482; [2]) was > 5120 nM, the AUC (BMN-673) was 0.776 and the IC50 (BMN-673) was 3680 nM. For the same cell line, the AUC (MLN4924) was 0.658 and the IC50 (MLN4924) was 165 nM.

In the case of “MS-1 (small cell lung carcinoma, suspension)”, the AUC (AZD6482; [1]) is reported as 0.979, the IC50 (AZD6482; [1]) is reported as > 5000 nM and the AUC (AZD6482; [2]) is reported as 0.96. The IC50 (AZD6482; [2]) was > 5120 nM, the AUC (BMN-673) was 0.954 and the IC50 (BMN-673) was > 10000 nM. The AUC (MLN4924) was 0.971 and the IC50 (MLN4924) was > 1000 nM.

In the case of MZ7-mel (melanoma, adherent), the AUC (AZD6482; [1]) is reported as 0.971, the IC50 (AZD6482; [1]) is reported as > 5000 nM and the AUC (AZD6482; [2]) is reported as 0.942. The IC50 (AZD6482; [2]) was > 5120 nM, the AUC (BMN-673) was 0.914 and the IC50 (BMN-673) was > 10000 nM. The AUC (MLN4924) was 0.951 and the IC50 (MLN4924) was > 1000 nM.

Mewo (melanoma, adherent) was tested, and the AUC (AZD6482; [1]) was 0.803, the IC50 (AZD6482; [1]) was 3060 nM and the AUC (AZD6482; [2]) was 0.958. For the same cell line, the IC50 (AZD6482; [2]) was > 5120 nM, the AUC (BMN-673) was 0.902 and the IC50 (BMN-673) was > 10000 nM. For the same cell line, the AUC (MLN4924) was 0.906 and the IC50 (MLN4924) was > 1000 nM.

For NB12 (neuroblastoma, adherent), the AUC (AZD6482; [1]) was 0.696, the IC50 (AZD6482; [1]) was 1360 nM and the AUC (AZD6482; [2]) was 0.892. The IC50 (AZD6482; [2]) was > 5120 nM, the AUC (BMN-673) was 0.955 and the IC50 (BMN-673) was > 10000 nM. For the same cell line, the AUC (MLN4924) was 0.961 and the IC50 (MLN4924) was > 1000 nM.

For NCI-H23 (lung adenocarcinoma, adherent), the AUC (AZD6482; [1]) was 0.973, the IC50 (AZD6482; [1]) was > 5000 nM and the AUC (AZD6482; [2]) was 0.988. For the same cell line, the IC50 (AZD6482; [2]) was > 5120 nM, the AUC (BMN-673) was 0.663 and the IC50 (BMN-673) was 1770 nM. The AUC (MLN4924) was 0.753 and the IC50 (MLN4924) was 330 nM.

In the case of “NCI-H69 (small cell lung carcinoma, suspension)”, the AUC (AZD6482; [1]) is reported as 0.958, the IC50 (AZD6482; [1]) is reported as > 5000 nM and the AUC (AZD6482; [2]) is reported as 0.951. For the same cell line, the IC50 (AZD6482; [2]) was > 5120 nM, the AUC (BMN-673) was 0.909 and the IC50 (BMN-673) was > 10000 nM. The AUC (MLN4924) was 0.872 and the IC50 (MLN4924) was > 1000 nM.
